The campaign covered roughly 39,000 compounds. About 220 (0.56%) showed activity. Some of the results follow.
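Also: static incubation at 37 °C against the wild-type strain, values averaged over two biological replicates.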

For the assay, the system named is Escherichia coli K-12 BW25113. Put plainly: relative growth (OD600 normalised to plate interquartile mean) (fraction); higher = less growth inhibition, active = 0.2 or less. As to conditions: 50 µM; LB; incubation time: overnight (16-24 h).
For `Cc1noc(C)c1S(=O)(=O)Nc1ccc2c(c1)C(=O)N([C@@H](C)CO)C[C@@H](C)[C@@H](CN(C)C(=O)Nc1ccccc1)OCCCC[C@H](C)O2`, the relative growth was inactive: 0.993.
For `C[C@H](CO)N1C[C@H](C)[C@@H](CN(C)CC2CCCCC2)Oc2c(NC(=O)Nc3cccc4ccccc34)cccc2C1=O`, the relative growth is inactive: 0.951.
Consider `C[C@H]1CN([C@@H](C)CO)S(=O)(=O)c2ccc(C#CC3CC3)cc2O[C@@H]1CN(C)C(=O)c1cccc(F)c1`, for which the relative growth was inactive: 1.01.
As for `CO[C@@H]1CN(C)C(=O)c2ccc(NS(=O)(=O)CC(F)(F)F)cc2OC[C@@H](C)N(C(=O)c2ccc3c(c2)OCO3)C[C@H]1C`, the relative growth is inactive: 1.01.
Regarding `O=C(O)CCSC[C@@H]1O[C@H]2O[C@@H]3[C@@H](O)[C@H](O)[C@H](O[C@@H]4[C@@H](O)[C@H](O)[C@H](O[C@@H]5[C@@H](O)[C@H](O)[C@H](O[C@@H]6[C@@H](O)[C@H](O)[C@H](O[C@@H]7[C@@H](O)[C@H](O)[C@H](O[C@@H]8[C@@H](O)[C@H](O)[C@H](O[C@@H]9[C@@H](O)[C@H](O)[C@H](O[C@@H]1[C@@H](O)[C@@H]2O)O[C@H]9CSCCC(=O)O)O[C@H]8CSCCC(=O)O)O[C@H]7CSCCC(=O)O)O[C@H]6CSCCC(=O)O)O[C@H]5CSCCC(=O)O)O[C@H]4CSCCC(=O)O)O[C@H]3CSCCC(=O)O`, the relative growth was inactive: 1.02.
As for `C[C@@H]1CCCCO[C@H](CN(C)C(=O)Nc2cccc3ccccc23)[C@H](C)CN([C@H](C)CO)C(=O)c2cc(NS(=O)(=O)c3ccc(Cl)cc3)ccc2O1`, the figure is inactive: 1.04; as for `CCCNC(=O)N[C@@H]1C=C[C@@H](CC(=O)N2CCN(C)CC2)O[C@@H]1CO`, inactive: 0.979; as for `C[C@@H]1CCCCO[C@@H](CN(C)C(=O)Nc2cccc3ccccc23)[C@@H](C)CN([C@H](C)CO)C(=O)c2cc(NS(=O)(=O)c3ccc(F)cc3)ccc2O1`, inactive: 1.03.
Under `CC(C)NC(=O)N(C)C[C@H]1Oc2c(NS(=O)(=O)c3ccc(F)cc3)cccc2C(=O)N([C@H](C)CO)C[C@H]1C` stands inactive: 1; under `COc1ccc(S(=O)(=O)Nc2cccc3c2O[C@@H](CN(C)Cc2ccc(Cl)c(Cl)c2)[C@@H](C)CN([C@@H](C)CO)C3=O)cc1`, inactive: 1.01; under `C[C@@H]1CN([C@@H](C)CO)C(=O)c2cccc(NC(=O)Nc3ccc(C(F)(F)F)cc3)c2O[C@H]1CN(C)S(C)(=O)=O`, inactive: 0.928.
Under `C[C@@H]1CCCCO[C@@H](CN(C)C(=O)Nc2cccc3ccccc23)[C@@H](C)CN([C@@H](C)CO)C(=O)c2cc(NS(=O)(=O)c3ccc(Cl)cc3)ccc2O1` stands inactive: 1.03.
Turning to `C[C@@H]1CCCCO[C@H](CN(C)S(C)(=O)=O)[C@@H](C)CN([C@H](C)CO)C(=O)c2cc(NC(=O)c3ccncc3)ccc2O1`, the relative growth was inactive: 0.969.
As for `C[C@@H]1CN([C@@H](C)CO)C(=O)c2cccc(NC(=O)Nc3ccccc3)c2O[C@@H]1CN(C)Cc1ccc(Cl)c(Cl)c1`, the figure is inactive: 1.01.
Under `O=C(N/N=C/[C@H](O)[C@@H](O)[C@H](O)[C@H](O)CO)c1ccccc1O` stands inactive: 1; under `CC1=C(C(=O)O)N2C(=O)C(NC(=O)C(N)C3=CCC=CC3)C2SC1` (stereo not given), inactive: 1.07; under `COc1cccc(NC(=O)N(C)C[C@H]2OCc3ccccc3-c3c(n(C)c4ccccc34)C(=O)N([C@H](C)CO)C[C@H]2C)c1`, inactive: 1.03.
Regarding `Cc1ccc(S(=O)(=O)Nc2ccc3c(c2)C(=O)N([C@H](C)CO)C[C@@H](C)[C@@H](CN(C)C(=O)C2CCCCC2)OCCCC[C@@H](C)O3)cc1`, the relative growth is inactive: 0.999.
For the compound `O=C1c2ccccc2[C@](Cc2ccccc2I)(C(=O)NCCN2CCOCC2)[C@H](c2ccc(CO)cc2)N1C1CCCCC1`, the relative growth was inactive: 1.02.
Under `C[C@H](CO)N1C[C@H](C)[C@@H](CN(C)Cc2ccc(-c3ccccc3)cc2)Oc2ccc(NC(=O)Nc3ccc(C(F)(F)F)cc3)cc2C1=O` stands inactive: 1.02; under `COc1cccc(S(=O)(=O)Nc2ccc3c(c2)[C@H]2C[C@@H](CC(=O)NCCc4ccccc4)O[C@@H](CO)[C@H]2O3)c1`, inactive: 0.983; under `COc1ccc(CN(C)C[C@H]2Oc3c(NC(=O)Nc4ccc(C(F)(F)F)cc4)cccc3C(=O)N([C@H](C)CO)C[C@H]2C)cc1`, inactive: 0.966.
Under `O=C(CNC(=O)c1ccc(Cl)cc1)NO` stands inactive: 0.98; under `COc1ccc(S(=O)(=O)N(C)C[C@H]2Oc3c(NS(=O)(=O)c4ccccc4)cccc3C(=O)N([C@@H](C)CO)C[C@H]2C)cc1`, inactive: 1.01; under `C[C@@H]1CN([C@H](C)CO)C(=O)c2cc(NC(=O)Cn3cnnn3)ccc2O[C@@H]1CN(C)Cc1ccc2c(c1)OCO2`, inactive: 0.973.
As for `Cc1ccc(S(=O)(=O)N(C)C[C@@H]2Oc3ccc(NC(=O)CCCN(C)C)cc3CC(=O)N([C@H](C)CO)C[C@H]2C)cc1`, the figure is inactive: 1.03.
For the compound `C[C@@H]1CCCCO[C@@H](CN(C)CC2CCCCC2)[C@H](C)CN([C@@H](C)CO)C(=O)c2cc(NC(=O)Nc3ccc4c(c3)OCO4)ccc2O1`, the relative growth was inactive: 0.982.
In the case of `C[C@@H]1CN([C@@H](C)CO)C(=O)c2cc(NC(=O)Nc3ccc(F)cc3)ccc2O[C@@H](C)CCCCO[C@H]1CN(C)Cc1ccc(C(F)(F)F)cc1`, the relative growth was inactive: 0.986.
For the compound `CC(C)NC(=O)Nc1ccc2c(c1)CC(=O)N([C@H](C)CO)C[C@H](C)[C@@H](CN(C)C(=O)NC1CCCCC1)O2`, the relative growth was inactive: 0.983.
Regarding `C[C@@H]1CCCCO[C@@H](CN(C)S(=O)(=O)c2ccc(F)cc2)[C@@H](C)CN([C@@H](C)CO)C(=O)c2cc(NC(=O)c3ccccc3)ccc2O1`, the relative growth was inactive: 0.969.
Under `C[C@H]1CN([C@@H](C)CO)C(=O)c2cccc(NC(=O)c3nc4ccccc4s3)c2O[C@@H]1CN(C)S(C)(=O)=O` stands inactive: 0.983.
Under `COc1ccc(S(=O)(=O)Nc2ccc3c(c2)CC(=O)N([C@H](C)CO)C[C@H](C)[C@H](CN(C)C)O3)cc1` stands inactive: 0.962; under `Cc1ccc(S[C@]2(C(=O)NCC(F)(F)F)CC(=O)N(Cc3cc(C(F)(F)F)cc(C(F)(F)F)c3)[C@@H]2c2ccc(CO)cc2)cc1`, inactive: 1; under `Cc1ccc(S(=O)(=O)Nc2ccc3c(c2)C(=O)N([C@@H](C)CO)C[C@H](C)[C@@H](CN(C)S(=O)(=O)c2ccc(C)cc2)OCCCC[C@@H](C)O3)cc1`, inactive: 1.
Consider `COc1ccc(/C=C/C(=O)C=C(O)/C=C/c2ccc(OC)c(OC)c2)cc1OC`, for which the relative growth was inactive: 0.998.
For the compound `COc1ccc(CN(C)C[C@@H]2OCCCC[C@H](C)Oc3ccc(NS(=O)(=O)c4ccc(OC)cc4)cc3C(=O)N([C@@H](C)CO)C[C@H]2C)cc1`, the relative growth was inactive: 0.999.
Under `COCC(=O)Nc1ccc2c(c1)C(=O)N(C)C[C@H](OC)[C@H](C)CN(C(=O)Cc1ccccn1)[C@@H](C)CO2` stands inactive: 0.984; under `C[C@@H]1ON(c2cccc(C(=O)OC(C)(C)C)c2)[C@H](c2ccc(Br)cc2)[C@H]1C(=O)N1C(=O)OC[C@H]1Cc1ccccc1`, inactive: 1.01; under `C[C@@H]1CN([C@@H](C)CO)C(=O)Cc2cc(NS(C)(=O)=O)ccc2O[C@@H]1CN(C)C(=O)Nc1ccc(C(F)(F)F)cc1`, inactive: 0.97.
Under `CS(=O)(=O)N1CC(=O)Nc2ccccc21` stands inactive: 1.01; under `COc1ccc(S(=O)(=O)N(C)C[C@@H]2OCCCC[C@@H](C)Oc3ccc(NS(=O)(=O)c4cn(C)cn4)cc3C(=O)N([C@@H](C)CO)C[C@@H]2C)cc1`, inactive: 0.987; under `O=C(C[C@H]1CC[C@@H]2[C@H](COC[C@@H](O)CN2C(=O)c2ccccc2)O1)NCCCN1CCOCC1`, inactive: 1.01.
Under `C=CC[C@@H](CC(=O)N[C@H](CO)Cc1ccccc1)C(=O)N[C@@H](C)COC(=O)[C@H](CC=C)CC(=O)OC(C)(C)C` stands inactive: 0.993; under `Cc1ccc(S(=O)(=O)N(C)C[C@H]2Oc3ccc(NC(=O)CCCN(C)C)cc3C(=O)N([C@H](C)CO)C[C@@H]2C)cc1`, inactive: 1.03.
For `N#CCC(=O)NCc1ccccn1`, the relative growth was inactive: 1.03.
Turning to `Cc1ccc(-c2ccc3c(c2)O[C@@H](CN(C)C(=O)NC(C)C)[C@H](C)CN([C@@H](C)CO)S3(=O)=O)cc1`, the relative growth was inactive: 1.02.
Take `C[C@@H]1CN([C@@H](C)CO)C(=O)c2ccccc2-c2ccccc2CO[C@H]1CN(C)C(=O)Nc1cccc(F)c1`: the relative growth was inactive: 0.98.
With `O=C(NC1=C(c2ccc(OC(F)(F)F)cc2)C(=O)c2ccccc2C1=O)c1ccc(Br)cc1`, the relative growth was inactive: 0.987.
For the compound `C[C@@H]1CCCCO[C@H](CN(C)C(=O)CCC(F)(F)F)[C@@H](C)CN([C@H](C)CO)C(=O)c2cc(NS(=O)(=O)c3ccccc3)ccc2O1`, the relative growth was inactive: 0.984.
On to `C[C@H]1CN([C@@H](C)CO)S(=O)(=O)c2ccc(-c3ccncc3)cc2O[C@@H]1CN(C)C(=O)c1cccc(F)c1`, for which the relative growth is inactive: 1.02.
With `Nc1cc2[nH]cnc2c(O)n1`, the relative growth was inactive: 0.931.
Regarding `Cc1noc(C)c1NC(=O)Nc1ccc2c(c1)C(=O)N([C@@H](C)CO)C[C@@H](C)[C@H](CN(C)C(=O)Nc1ccc(C(F)(F)F)cc1)OCCCC[C@@H](C)O2`, the relative growth is inactive: 1.03.
Regarding `CC(=O)N(O)CCCCCNC(=O)CC(O)(CC(=O)NCCCCCN(O)C(C)=O)C(=O)O`, the relative growth was inactive: 0.98.
Under `COCC(=O)N1[C@@H]2c3ccc(C4=CCCCC4)c(=O)n3C[C@@H]2[C@@H](CO)[C@@H]1C(=O)N1CCN(C)CC1` stands inactive: 1.
As for `CC(=O)N(C)C[C@@H]1Oc2ncc(C#C[C@H](C)O)cc2C(=O)N([C@@H](C)CO)C[C@@H]1C`, the figure is inactive: 1.01.
